Measured values reported in PubChem BioAssay AID1645882 (National Center for Advancing Translational Sciences (NCATS), 2021).
The whole screen tested about 16,000 compounds, of which about 120 (0.75%) were called active. About 4% were inconclusive and are not listed. Calls come from the whole dose curve; as a rule, active = well fitted inhibition curve with a large enough effect; inconclusive = small, poorly fitted or top-dose-only effect; inactive = no such curve, though single readings can be large or run the other way. Some of the results follow.

target: Rap guanine nucleotide exchange factor 3 (Homo sapiens) (UniProt O95398); experiment: Validation qHTS for antagonist of cAMP-regulated guanine nucleotide exchange factor 3 (EPAC1); settings: EPAC1 Rap1B-BODIPY-GDP exchange, fluorescence; series mostly up to 150 µM; activity change, negative = inhibition: at the top concentration;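 note: plate controls were DMSO for no effect and ATA control for full effect; nearly all actives have a fitted effect of over 75% in size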
In short: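 EPAC1 (100 nM) mixed with 250 nM RAP1B-BODIPY-GDP and 50 uM GDP; compounds in concentration series, 5 min at room temperature. Fluorescence (ex 480/em 540 nm) read every 5 min for 30 min; normalized to ATA control and DMSO.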

Sequence of UniProt O95398 (O95398 whole entry, looked up): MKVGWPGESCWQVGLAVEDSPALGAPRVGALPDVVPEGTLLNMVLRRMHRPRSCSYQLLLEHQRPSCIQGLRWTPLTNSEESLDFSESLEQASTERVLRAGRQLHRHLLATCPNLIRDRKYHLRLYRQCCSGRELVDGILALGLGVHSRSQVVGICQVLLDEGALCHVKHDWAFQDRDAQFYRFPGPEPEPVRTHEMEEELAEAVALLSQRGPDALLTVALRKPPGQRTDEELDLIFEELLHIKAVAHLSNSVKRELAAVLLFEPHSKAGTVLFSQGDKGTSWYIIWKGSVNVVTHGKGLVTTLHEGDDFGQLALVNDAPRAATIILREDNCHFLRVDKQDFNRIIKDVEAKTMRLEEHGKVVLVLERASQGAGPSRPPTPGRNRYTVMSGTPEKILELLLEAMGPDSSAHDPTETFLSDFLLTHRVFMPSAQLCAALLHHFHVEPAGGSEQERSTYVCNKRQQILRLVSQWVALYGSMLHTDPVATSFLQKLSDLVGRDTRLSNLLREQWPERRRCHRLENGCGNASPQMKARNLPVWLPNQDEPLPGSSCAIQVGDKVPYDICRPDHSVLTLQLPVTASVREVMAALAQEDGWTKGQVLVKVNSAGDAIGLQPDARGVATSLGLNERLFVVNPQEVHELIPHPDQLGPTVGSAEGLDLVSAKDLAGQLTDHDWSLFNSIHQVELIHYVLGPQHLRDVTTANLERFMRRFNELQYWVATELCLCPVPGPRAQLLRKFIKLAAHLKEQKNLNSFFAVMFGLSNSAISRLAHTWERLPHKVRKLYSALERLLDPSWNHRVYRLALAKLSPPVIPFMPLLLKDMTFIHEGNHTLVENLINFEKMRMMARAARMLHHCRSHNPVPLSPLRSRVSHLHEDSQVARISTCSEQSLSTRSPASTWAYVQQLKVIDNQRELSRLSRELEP

| SMILES | activity change, negative = inhibition |
| --- | --- |
| CC(C)NC(=O)N1CCCC2(CCN(C(=O)Oc3ccccc3)CC2)C1 | inactive: 12.4% |
| CC(C)N(CCC(C(N)=O)(c1ccccc1)c1ccccn1)C(C)C (stereo not drawn) | inactive |
| O=[N+]([O-])/C=C/c1ccc2c(c1)OCO2 | inactive: 11.9% [at 75.8 µM] |
| COP(N)(=O)SC (stereo not drawn) | inactive: -10.9% |
| CCC12CCCN3CCC4(c5ccc(OC)c(O)c5N(C(C)=O)C4CC1)C32 (stereo not drawn) | inactive: 12.8% |
| CO[C@H]1[C@@H](O)C[C@H](O[C@H]2[C@@H](O)C[C@H](O[C@H]3[C@@H](O)C[C@H](O[C@H]4CC[C@@]5(C)[C@H](CC[C@@H]6[C@@H]5C[C@@H](O)[C@]5(C)[C@@H](C7=CC(=O)OC7)CC[C@]65O)C4)O[C@@H]3C)O[C@@H]2C)O[C@@H]1C | inactive: -8.83% |
| COC(=O)c1ccccc1C(=O)OC | inactive: 24.4% |
| N#Cc1ccc(CN2CC[C@@]3(CCCNC3)C2)cc1 | inactive: 3.54% |
| Clc1ccc(C2CC3CCC2N3)cn1 (stereo not drawn) | inactive |
| C[C@]12CCC(=O)C=C1CC[C@@H]1[C@H]3CC[C@](C)(O)[C@@]3(C)CC[C@@H]12 | inactive: 19.8% [at 320 µM] |
| C[C@@H]1[C@@H]2Cc3ccc(O)cc3[C@@]1(C)CCN2CC1CC1 | inactive: -8.52% [at 75.8 µM] |
| CCN(CC)CCO[C@H]1CC[C@@]2(C)C(=CC[C@@H]3[C@H]2CC[C@]2(C)C(=O)CC[C@H]32)C1 | inactive: -12.1% |
| NCC(=O)c1ccc(Br)cc1 | inactive: -14.6% |
| Cc1ccc(-c2nc3ccc(C)cn3c2CC(=O)N(C)C)cc1 | inactive: 16.5% |
| Nc1nc(N)nc(NC2CC2)n1 | inactive: -8.79% |
| CN(C)CCN(C)CCc1ccc(Cl)c(Cl)c1 | inactive |
| Nc1ccc(N=Nc2ccccc2)cc1 | inactive: 6.31% [at 320 µM] |
| CCC12C=CCN3CCC4(c5ccc(OC)cc5N(C)C4[C@@](O)(C(=O)OC)C1OC(C)=O)C32 (stereo partly drawn) | inactive: 12.6% |
| CN[C@]1(c2ccccc2Cl)CCCCC1=O | inactive: 17.8% |
| C[C@H](N)CN1CCc2ccc(Br)cc21 | inactive: 2.88% [at 75.8 µM] |
| CC(=O)C1=C(O)C2C3c4c[nH]c5cccc(c45)CC3C(C)(C)N2C1=O (stereo not drawn) | inactive: 21.7% |
| CN1CCc2cc(Cl)c(O)cc2[C@H]2c3ccccc3CC[C@@H]21 | inactive: 15.6% |
| Cc1ccccc1-n1c(C)nc2ccccc2c1=O | inactive |
| C[C@@]12CCC(OS(=O)(=O)O)C[C@@H]1CCC1C2CC[C@]2(C)C(=O)CCC12 (stereo partly drawn) | inactive: 16.8% |
| NCCc1ccc(S(=O)(=O)F)cc1 | inactive: -12.2% [at 75.8 µM] |
| C[C@H]1O[C@H](O[C@H]2[C@H](O)[C@@H](O)[C@@H](O)[C@H](O)[C@@H]2O)[C@@H](N)C[C@@H]1NC(=N)C(=O)O | inactive: 18.6% |
| CCCCCCCCCCCCCCCCOC[C@@H](COP(=O)([O-])OCC[N+](C)(C)C)OC(C)=O | inactive: 25% [at 15.3 µM] |
| C/C(O)=C(/C#N)C(=O)Nc1cc(Br)ccc1Br | inactive: -5.83% |
